Experimental data: patent US20190127452A1 (Amgen, published 2019)
Values belong to the binder of their own block, whether it stands above or below them.

What was measured:
Assay in all cases: cell-based or functional assay
[1] = target: GS molecular complementation fragment 2B (LZ -- N105 -- C-terminus) (mouse)
[2] = target: GS molecular complementation fragment 3B (LZ -- N126 -- C-terminus) (mouse)
[3] = target: GS molecular complementation fragment 1B (LZ -- T111 -- C-terminus) (mouse)

Rescue of CHO-K1 GS KO [1]: 4 of 4 transfections
B1: GS molecular complementation fragment 2A (N-terminus -- Y104 -- LZ) (other)
chain: MATSASSHLNKGIKQMYMSLPQGEKVQAMYIWVDGTGEGLRCKTRTLDCEPKCVEELPEWNFDGSSTFQSEGSNSDMYLHPVAMFRDPFRKDPNKLVLCEVFKYGGGGSGGGGGSSDRMKQLEDKVEELLSKVYHLENEVARLKKLVGER
Days to >90% viability [1]: 18 days

Rescue of CHO-K1 GS KO [2]: 4 of 4 transfections
B2: GS molecular complementation fragment 3A (N-terminus -- S125 -- LZ) (other)
chain: MATSASSHLNKGIKQMYMSLPQGEKVQAMYIWVDGTGEGLRCKTRTLDCEPKCVEELPEWNFDGSSTFQSEGSNSDMYLHPVAMFRDPFRKDPNKLVLCEVFKYNRKPAETNLRHICKRIMDMVSGGGGSGGGGGSSDRMKQLEDKVEELLSKVYHLENEVARLKKLVGER
Days to >90% viability [2]: ~24 days

Rescue of CHO-K1 GS KO [3]: 2 of 4 transfections
B3: GS molecular complementation fragment 1A (N-terminus -- E110 -- LZ) (other)
chain: MATSASSHLNKGIKQMYMSLPQGEKVQAMYIWVDGTGEGLRCKTRTLDCEPKCVEELPEWNFDGSSTFQSEGSNSDMYLHPVAMFRDPFRKDPNKLVLCEVFKYNRKPAEGGGGSGGGGGSSDRMKQLEDKVEELLSKVYHLENEVARLKKLVGER
Days to >90% viability [3]: ~30 days
